# Assay results as given in PubChem BioAssay AID624417 (National Center for Advancing Translational Sciences (NCATS), 2012).
# The campaign covered roughly 410,000 compounds. About 6,400 (1.6%) were called active. Inconclusive results, whose numbers are uncertain, are shown with a selection of clear calls. The call rests on the fitted dose curve; in most records, active means well fitted inhibition curve with a large enough effect; inconclusive means small, poorly fitted or top-dose-only effect; inactive means no such curve, though single readings can be large or run the other way. Potencies of inconclusive entries are left out as doubtful fits.
# Target: Glucagon-like peptide 1 receptor (Homo sapiens) (UniProt P43220)
# Chain of UniProt P43220 (P43220 whole entry, looked up): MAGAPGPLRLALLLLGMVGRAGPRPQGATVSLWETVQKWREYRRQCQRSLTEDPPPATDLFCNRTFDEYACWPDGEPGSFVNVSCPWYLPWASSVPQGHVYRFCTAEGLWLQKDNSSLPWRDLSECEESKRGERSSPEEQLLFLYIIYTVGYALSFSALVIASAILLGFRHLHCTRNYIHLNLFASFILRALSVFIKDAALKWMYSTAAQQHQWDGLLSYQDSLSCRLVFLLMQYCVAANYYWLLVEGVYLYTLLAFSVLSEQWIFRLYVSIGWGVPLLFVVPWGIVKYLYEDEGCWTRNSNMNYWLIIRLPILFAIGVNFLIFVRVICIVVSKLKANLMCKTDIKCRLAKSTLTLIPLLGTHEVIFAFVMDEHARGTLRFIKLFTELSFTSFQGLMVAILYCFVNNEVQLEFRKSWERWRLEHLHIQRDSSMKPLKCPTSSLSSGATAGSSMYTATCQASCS
# Test: qHTS of GLP-1 Receptor Inverse Agonists (Inhibition Mode); further: nearly all actives have a fitted effect of over 55% in size
# Settings: HEK293 GLP-1R CRE-luciferase, luminescence, 24 h, GLP-1R form is constitutively active; activity change, negative = inhibition: at 38.3 µM (top of the series) unless noted
# Outline: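 Constitutively active GLP-1R drives a cAMP-responsive luciferase in stably transfected HEK293 cells; test compounds are added after overnight (12 h) attachment and left 24 hr, and signal loss in luminescence marks inhibition.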
# On the % scale 0 is the no-effect control and ±100 the full control effect; potency means the concentration at half of the fitted maximal effect; tags describe the fitted curve by direction and shape.
Compound,Potency,"activity change, negative = inhibition"
Cc1ccc(-c2noc(CN(C3CCCCC3)S(=O)(=O)c3ccc(C)cc3)n2)cc1,"inconclusive [inhibitor, partial curve, poor fit]",
COc1cc(NC(=O)c2noc3c2CCc2ccccc2-3)cc(OC)c1OC,"inconclusive [inhibitor, single point]",
C=COCCNC(=S)Nc1cccc(Cl)c1,"inconclusive [inhibitor, single point]",
O=C(N/N=C/c1ccc(N2CCOCC2)s1)c1ccc(O)cc1,"inconclusive [inhibitor, single point]",
O=S(=O)(c1ccc(F)cc1F)N1CCCN(c2ccc(C(F)(F)F)cn2)CC1,"inconclusive [inhibitor, partial curve, poor fit]",
CC1=C(C(=O)Nc2ccc(C)cc2C)C(c2ccccc2C)n2ncnc2N1 (centres undefined),,inactive: -3.5%
CN(C)c1ccc(C(CNS(=O)(=O)c2ccc(Cl)cc2)N2CCCC2)cc1 (centres undefined),,inactive: 11.6%
CCN(CC)S(=O)(=O)c1ccc(N2CCOCC2)c(NC(=O)CNCCc2ccccc2)c1,"inconclusive [inhibitor, single point]",
CCC(=O)N(CCc1ccccc1)Cc1cc2cc3c(cc2[nH]c1=O)OCO3,,inactive: 3.69%
O=C(Nc1ccc(Cl)cc1)C1CCN(c2nc3ccccc3n3cccc23)CC1,,inactive: 6.11%
CC(C)(C)OC(=O)N1CCC(c2c(C(=O)NCc3ccc4c(c3)OCO4)cnn2-c2ccc(F)cc2F)CC1,"inconclusive [inhibitor, single point]",
CCC(Oc1ccccc1F)C(=O)Nc1c(C(=O)c2ccccc2)oc2ccccc12 (centres undefined),,inactive: -0.654%
Cc1c(OCC(=O)NC2CC(C)(C)NC(C)(C)C2)ccc2c1oc(=O)c1ccccc12,"inconclusive [inhibitor, full curve, poor fit]",
Cc1csc(NC(=O)c2oc3ccccc3c2C)n1,"inconclusive [inhibitor, single point]",
Cc1ccc(-c2c[n+](Cc3cccc(Cl)c3)c3n2CCC3)cc1,"inconclusive [inhibitor, partial curve, poor fit]",
Cc1cc(C(=O)NCC2CCCCC2)ccc1[N+](=O)[O-],,inactive: -27.6%
COc1ccc(CNC(=O)CCCCCNc2nc(=S)[nH]c3ccccc23)cc1,,inactive: -19.8%
Cc1ccccc1NP(=O)(c1ccccc1)c1nc2ccccc2s1 (centres undefined),"inconclusive [inhibitor, partial curve, poor fit]",
Cc1cc(S(=O)(=O)NC2CC(C)(C)NC(C)(C)C2)c(Cl)cc1Cl,"inconclusive [inhibitor, partial curve, poor fit]",
Cc1cc(OCC(=O)N(Cc2cccs2)C2CCS(=O)(=O)C2)ccc1Cl (centres undefined),"inconclusive [inhibitor, partial curve, poor fit]",
Cc1ccc(NCC(=O)N/N=C/c2ccc(-c3cccc(C(F)(F)F)c3)o2)cc1,"inconclusive [inhibitor, partial curve, poor fit]",
COc1ccc(Br)cc1CNC(=O)CCCn1c(=O)c2cccn2c2ccccc21,,inactive: -20.5%

Compound,Potency,"activity change, negative = inhibition"
CCC1CN(C(=O)N2CCC(C(=O)NCCc3ccc(OC)cc3OC)CC2)c2ccccc2O1 (centres undefined),"inconclusive [inhibitor, single point]",
COCOc1cccc(CN2CCC(C)(Oc3cccc(C#N)c3)C2)c1 (centres undefined),"inconclusive [inhibitor, single point]",
CCc1ccc(-n2c(C)nnc2SCc2nc(-c3ccc(OC)cc3)no2)cc1,"inconclusive [inhibitor, partial curve, poor fit]",
CC(Sc1ccc2c(c1)OCCO2)C(=O)Nc1ncc(Cl)cc1Cl (centres undefined),"inconclusive [inhibitor, single point]",
Cc1ccc(-c2cc3ncc(C(=O)c4cc([N+](=O)[O-])ccc4O)cn3n2)cc1,,inactive: -28%
COc1cccc(/C=C/C(=O)N(C)CC(=O)Nc2ccc(Cl)c(C(F)(F)F)c2)c1,"inconclusive [inhibitor, partial curve, poor fit]",
COc1cc(NC(=O)C2CCCC2)c(OC)cc1Cl,"inconclusive [inhibitor, partial curve, poor fit]",
Cc1ccc(NC(=O)Nc2cccnc2)cc1NC(=O)Nc1cccnc1,"inconclusive [inhibitor, single point]",
CN(Cc1ccccc1)C(=O)c1ccc(NC(=O)Cc2ccc(NC(=O)C3CCCN(S(=O)(=O)c4cccc([N+](=O)[O-])c4)C3)cc2)cc1 (centres undefined),"inconclusive [inhibitor, partial curve, poor fit]",
CC1(Cc2ccc(F)cc2)C(=O)Nc2ccc(S(=O)(=O)NC3CCCCC3)cc21 (centres undefined),,inactive: -4.27%
Cc1cc([N+](=O)[O-])cc(C)c1OCC(=O)N/N=C/c1ccc(OC(=O)c2ccccc2)cc1,"inconclusive [inhibitor, single point]",
CCCCNC(=O)C[C@@H]1C[C@@]2(C(=O)OCC)CCC=C2N(Cc2ccco2)C1=O,,inactive: 4.25%
Cc1ccc(NC(=O)c2nnn(-c3cc(C)cc(C)c3)c2N)cc1,"inconclusive [inhibitor, partial curve, poor fit]",
Cc1ccn2c(c1)nc(=O)c1cc(S(=O)(=O)N3CCC(C)CC3)c(Cl)cc12,,inactive: -0.738%
Cc1ccc(C(=O)CCC(=O)N2CCN(C/C=C/c3ccccc3)CC2)cc1,"inconclusive [inhibitor, partial curve]",
CCCCN(C)CCNC(=O)c1cc(-c2cccnc2)nc2ccc(S(=O)(=O)N3CCC(C)CC3)cc12,"inconclusive [inhibitor, full curve, poor fit]",
Nc1ccccc1Nc1cc(-c2cccc(Cl)c2)nn1-c1ccccc1,active: 10 µM,
Cc1cc(NS(=O)(=O)c2c(C(=O)N3CCOCC3)c(C)n(C)c2C)ccc1Br,"inconclusive [inhibitor, partial curve, poor fit]",
CCOc1ccc(NC(=O)Nc2cc(OCC(F)(F)F)cc(OCC(F)(F)F)c2)cc1,"inconclusive [inhibitor, full curve, poor fit]",
Cc1ccn2cc(CSc3ccccc3N)nc2c1,,inactive: -0.582%
COC(=O)C(NC(=O)c1ccc(F)cc1)(Nc1ncc(S(=O)(=O)c2ccc([N+](=O)[O-])cc2)s1)C(F)(F)F (centres undefined),"inconclusive [inhibitor, single point]",
CC(NCC(=O)Nc1ccccc1C(=O)NC1CC1)c1cccs1 (centres undefined),,inactive: 12.8%

Compound,Potency,"activity change, negative = inhibition"
COc1cccc(=O)c2c(C)n(-c3cc(C)cc(C)c3)c(C)c12,"inconclusive [inhibitor, single point]",
CCCCNC(=O)C1(C)CCN1C(=O)c1ccc2ccccc2n1 (centres undefined),"inconclusive [inhibitor, single point]",
O=C1C=C(c2ccc(F)cc2OCc2ccccc2)C[C@@H](c2ccc(F)cc2)C1,"inconclusive [inhibitor, partial curve, poor fit]",
COCC(=O)N/N=C\c1cccc(OC)c1OC/C=C/c1ccccc1,"inconclusive [inhibitor, partial curve, poor fit]",
O=C(/C=C/c1cccc(C(F)(F)F)c1)N1CCN(c2ccccn2)CC1,"inconclusive [inhibitor, single point]",
CCCOc1ccccc1Cn1c(=O)sc2ccccc21,"inconclusive [inhibitor, single point]",
N#CC(C(=O)Nc1ccc(Cl)c(Cl)c1)=C1Nc2ccccc2N1,"inconclusive [inhibitor, partial curve, poor fit]",
CCOc1ccc(NC(=O)N2CCOc3ccccc32)cc1,,inactive: 5.19%
NC(=S)n1[nH]c(-c2ccc([N+](=O)[O-])cc2)c(N=Nc2cccc(Cl)c2)c1=O,"inconclusive [inhibitor, partial curve, poor fit]",
Cc1ccnc(NC(c2ccccc2F)c2ccc3cccnc3c2O)c1 (centres undefined),"inconclusive [inhibitor, single point]",
CCc1ccccc1NC(=O)CSc1nnc(-c2nonc2NC(C)=O)n1C,,inactive: 31.1%
CN(CCOc1ccc(Cl)cc1)C(=O)c1ccccc1SCC(=O)N1CCCC1,"inconclusive [inhibitor, single point]",
O=[N+]([O-])c1ccc(NN=Cc2ccc(O)cc2)nc1,"inconclusive [inhibitor, partial curve, poor fit]",
Cc1ccc(N2C(=O)C3C4C=CC(CNC(=S)Nc5cccc(Cl)c5)(O4)C3C2=O)cc1 (centres undefined),"inconclusive [inhibitor, partial curve, poor fit]",
CCCCN(CC)CCCNC(=S)Nc1ccc2nc(N3CCN(CC)CC3)cc(C)c2c1,"inconclusive [inhibitor, full curve]",
Clc1cccc(C2CCN(Cc3nc(COc4ccccc4)no3)C2)c1 (centres undefined),"inconclusive [inhibitor, partial curve, poor fit]",
CSc1nsc(SCC(=O)Nc2ccc(Br)cn2)n1,"inconclusive [inhibitor, single point]",
O=C(NNC(=O)c1ccccc1Cl)c1cc2cc(OC(F)(F)F)ccc2[nH]1,,inactive: 2.68%
O=c1c2cc(NC(=S)N3CCCCC3)ccc2nc2n1CCCCC2,"inconclusive [inhibitor, full curve, poor fit]",
CC(=O)c1ccc(S(=O)(=O)N2CCN(C(=O)/C=C/c3ccc4ccccc4n3)CC2)cc1,"inconclusive [inhibitor, full curve, poor fit]",
